Hit rate of the full screen: of about 310,000 compounds, about 2,200 (0.71%) showed an effect of 50% or more. Effects have a minus sign here. Some of the results follow.
molecular target: human ether-à-go-go-related gene (hERG) potassium channel (human, UniProt Q12809); assay: primary screen, population patch clamp on CHO cells stably expressing hERG
Sequence (Q12809 whole entry, looked up): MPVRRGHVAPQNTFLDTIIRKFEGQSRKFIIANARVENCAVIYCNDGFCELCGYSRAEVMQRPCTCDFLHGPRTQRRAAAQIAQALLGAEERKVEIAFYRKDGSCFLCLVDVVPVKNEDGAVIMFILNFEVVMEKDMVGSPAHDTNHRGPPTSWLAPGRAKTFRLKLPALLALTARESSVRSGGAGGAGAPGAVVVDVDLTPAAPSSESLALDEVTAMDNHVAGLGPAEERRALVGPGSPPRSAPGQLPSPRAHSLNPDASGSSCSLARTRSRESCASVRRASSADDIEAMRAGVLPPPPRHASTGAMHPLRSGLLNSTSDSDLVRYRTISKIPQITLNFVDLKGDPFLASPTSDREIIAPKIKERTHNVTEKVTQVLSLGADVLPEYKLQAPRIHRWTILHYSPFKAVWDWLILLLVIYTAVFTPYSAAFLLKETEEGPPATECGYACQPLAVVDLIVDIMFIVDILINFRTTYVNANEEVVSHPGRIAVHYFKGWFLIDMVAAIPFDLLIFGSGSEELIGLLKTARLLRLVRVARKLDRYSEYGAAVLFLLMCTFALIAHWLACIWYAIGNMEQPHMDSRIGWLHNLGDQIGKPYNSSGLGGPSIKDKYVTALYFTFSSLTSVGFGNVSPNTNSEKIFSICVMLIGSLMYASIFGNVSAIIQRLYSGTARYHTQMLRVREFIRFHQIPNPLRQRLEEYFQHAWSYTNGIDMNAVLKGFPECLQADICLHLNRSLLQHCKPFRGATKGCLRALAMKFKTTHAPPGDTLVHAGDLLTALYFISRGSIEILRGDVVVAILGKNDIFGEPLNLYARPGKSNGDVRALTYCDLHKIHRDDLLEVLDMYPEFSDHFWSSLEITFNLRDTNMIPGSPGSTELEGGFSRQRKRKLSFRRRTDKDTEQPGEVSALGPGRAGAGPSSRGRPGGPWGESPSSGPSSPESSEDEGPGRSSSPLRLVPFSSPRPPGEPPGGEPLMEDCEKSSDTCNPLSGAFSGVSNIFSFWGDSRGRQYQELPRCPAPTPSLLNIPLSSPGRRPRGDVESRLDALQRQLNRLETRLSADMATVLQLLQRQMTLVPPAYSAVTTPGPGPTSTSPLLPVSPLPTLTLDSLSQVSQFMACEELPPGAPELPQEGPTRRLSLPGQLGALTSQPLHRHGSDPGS

| Compound | hERG current change (%, negative = inhibition) at 1uM |
| --- | --- |
| CCC(=O)OCCn1c(=O)c2ccccc2c2ccccc2c1=O | 1.64% |
| CCc1nn2c(=O)cc(CSCC(=O)Nc3ccccc3F)nc2s1 | 9.69% |
| O=C(NCc1ccc(N2CCCC2=O)cc1)c1cc(COc2c(F)cccc2F)on1 | 8.5% |
| Cc1cccc(NC(=S)Nn2cnnc2)c1C | 10.9% |
| CCC(=O)c1ccc(OCC(=O)N(Cc2nnc(-c3ccccc3Cl)o2)C2CC2)cc1 | -20.1% |
| COC(=O)C1=C(c2ccccc2)C[C@@H]2CC[C@H]1N2C(=O)N1CCCC1 | 12.1% |
| Cn1c(O)c(C=NCCN2CCN(C(=O)c3ccccc3)CC2)c(=O)n(C)c1=O | 11.7% |
| Cc1nnc(SCc2cc(=O)[nH]c(N3CCN(C)CC3)n2)s1 | 1.81% |
| COc1ccc(OCc2nnc(SCC(=O)N3CCOCC3)o2)cc1 | 13.6% |
| O=S(=O)(NN1CCOCC1)c1ccc(Cl)s1 | 12.4% |
| CC(C)(C)CN1CCNC(=O)C1CC(=O)NCCc1ccccc1C(F)(F)F (stereo not shown) | 4.28% |
| CC(C)CN1C(=O)c2ccc(NC(=O)c3cccs3)cc2C1=O | -0.839% |
| CC(=O)Nc1cccc(NC(=O)CSc2ccc(C(F)(F)F)cc2[N+](=O)[O-])c1 | 0.173% |
| O=C(NCCOc1nc(N2CCCCC2)nc(N2CCOCC2)n1)Nc1ccccc1 | 5.87% |
| CCCSc1ccc(C(=O)Nc2ccc(Cl)cc2)cn1 | 12.7% |
| Cn1ncn2c(=O)c3c(nc12)-c1ccccc1CC31CCCC1 | 8.34% |
| COc1ccc(-c2ccc(SCC(=O)c3ccccc3)nn2)cc1OC | 5.96% |
| Cc1cccc(NC(=S)NNc2ncc(C(F)(F)F)cc2Cl)c1 | 12.9% |
| Cc1c(C)n(-c2ccccc2)c2ncnc(NCCCN(C)C)c12 | 6.45% |
| FC(F)(F)c1cccc(NC(=S)NCC2COc3ccccc3O2)c1 (stereo not shown) | 0.938% |
| CCOc1ccc(N(CC(=O)Nc2cccc(N(C)S(C)(=O)=O)c2)S(=O)(=O)c2ccccc2)cc1 | 8.61% |
| NS(=O)(=O)c1cccc(NC(=O)CC2(CC(=O)O)CCCC2)c1 | 26.1% |
| Cc1oc(C(=O)O)cc1COc1ccc2c(C)cc(=O)oc2c1 | 3.18% |
| CCOc1ccc(C(=O)NCC(=O)Nc2ccc(N3CCOCC3)cc2)cc1OCC | 3.18% |
| CCn1cc(/C=C(\NC(=O)c2ccccc2Cl)C(=O)NCCN2CCOCC2)c2ccccc21 | 5.13% |

Reference: paper PMC4336329 (PLoS ONE, 2015)
